Laboratory results reported in the supplement of paper PMC5998384.

Experiments:
[1] = test system: HeLa Kyoto; assay: thermal stability score vs G1/S (z-score of summed log2 fold changes over temperatures); higher = more thermally stable than in G1/S
[2] = test system: HeLa Kyoto; assay: solubility in G1/S (NP-40 vs SDS abundance) (log2 ratio); higher = more soluble; conditions: cell cycle stage: G1/S
[3] = test system: HeLa Kyoto; assay: melting temperature (median over replicates), in situ; higher = more thermally stable
[4] = test system: HeLa Kyoto; assay: solubility change mitosis vs G1/S (difference of NP-40 vs SDS log2 ratios) (log2 ratio difference); higher = more soluble in mitosis
[5] = cell cycle stage: early G1 (4.5 h after nocodazole release)
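For melting temperature (median over replicates), in situ in this document: HeLa Kyoto cells synchronized by double thymidine or nocodazole block, proteins quantified by TMT10plex mass spectrometry, three independent biological replicates.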
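For solubility change mitosis vs G1/S (difference of NP-40 vs SDS log2 ratios) in this document: synchronized HeLa Kyoto cells (double thymidine block for G1/S, nocodazole release for mitosis), protein amounts in NP-40 versus SDS lysates quantified by mass spectrometry, three biological replicates.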
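For solubility in G1/S (NP-40 vs SDS abundance) in this document: HeLa Kyoto cells arrested at G1/S by double thymidine block, proteins quantified by TMT10plex mass spectrometry in mild NP-40 versus SDS extracts, three biological replicates.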
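For thermal stability score vs G1/S (z-score of summed log2 fold changes over temperatures) in this document: synchronized HeLa Kyoto cells, proteins quantified by TMT10plex mass spectrometry, three biological replicates, mitosis taken 0.5 h after nocodazole release, G1/S directly after double thymidine block.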

Sequence | thermal stability score [1, 5] | thermal stability score ([1]; cell cycle stage: mitosis) | solubility in G1/S (log2) [2] | melting temperature ([3]; cell cycle stage: mitosis) [°C] | solubility change mitosis (log2) [4] | melting temperature ([3]; cell cycle stage: G1/S) [°C]
MDPNCSCAAGDSCTCAGSCKCKECKCTSCKKSCCSCCPVGCAKCAQGCICKGASDKCSCCA [MT2A] | 0.626 | -2.98 | 0.142 | 50.5 | -0.309 | 
MEGLEENGGVVQVGELLPCKICGRTFFPVALKKHGPICQKTATKKRKTFDSSRQRAEGTDIPTVKPLKPRPEPPKKPSNWRRKHEEFIATIRAAKGLDQALKEGGKLPPPPPPSYDPDYIQCPYCQRRFNENAADRHINFCKEQAARISNKGKFSTDTKGKPTSRTQVYKPPALKKSNSPGTASSGSSRLPQPSGAGKTVVGVPSGKVSSSSSSLGNKLQTLSPSHKGIAAPHAGANVKPRNSTPPSLARNPAPGVLTNKRKTYTESYIARPDGDCASSLNGGNIKGIEGHSPGNLPKFCHECGTKYPVEWAKFCCECGIRRMIL [ZC2HC1A] |  |  | 0.351 |  | 0.306 | 
MIRFILIQNRAGKTRLAKWYMQFDDDEKQKLIEEVHAVVTVRDAKHTNFVEFRNFKIIYRRYAGLYFCICVDVNDNNLAYLEAIHNFVEVLNEYFHNVCELDLVFNFYKVYTVVDEMFLAGEIRETSQTKVLKQLLMLQSLE [AP2S1] | -0.917 | 0.509 | -0.179 | 52.8 | -0.0592 | 51.8
